Test [1] has as its target T1, SIRT2 (isoform 1) tagged at its C-terminus with GFP (UniProt Q8IXJ6).
T1 sequence: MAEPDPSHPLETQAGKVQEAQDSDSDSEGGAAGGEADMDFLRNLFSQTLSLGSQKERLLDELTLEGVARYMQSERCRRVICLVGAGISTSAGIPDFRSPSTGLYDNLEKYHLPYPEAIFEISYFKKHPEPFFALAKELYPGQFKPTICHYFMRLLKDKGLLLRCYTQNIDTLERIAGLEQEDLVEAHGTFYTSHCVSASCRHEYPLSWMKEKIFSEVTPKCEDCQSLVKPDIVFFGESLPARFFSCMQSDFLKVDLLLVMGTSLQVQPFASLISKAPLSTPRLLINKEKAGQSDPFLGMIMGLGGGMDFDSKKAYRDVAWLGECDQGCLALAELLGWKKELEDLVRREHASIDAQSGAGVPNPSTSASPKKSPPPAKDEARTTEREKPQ
The experiment in a line: co-IP; HeLa cells transfected with GFP-tagged SIRT2 or GFP alone, RIPA lysate, GFP-Trap agarose beads 1 h at 4 °C, washes up to 300 mM NaCl, Western blot of endogenous proteins. A general note: In western blotting, separated proteins are transferred to a membrane and probed.

Sequences of proteins named here, by UniProt entry; tags and fusion partners are left off.
UniProt Q92793: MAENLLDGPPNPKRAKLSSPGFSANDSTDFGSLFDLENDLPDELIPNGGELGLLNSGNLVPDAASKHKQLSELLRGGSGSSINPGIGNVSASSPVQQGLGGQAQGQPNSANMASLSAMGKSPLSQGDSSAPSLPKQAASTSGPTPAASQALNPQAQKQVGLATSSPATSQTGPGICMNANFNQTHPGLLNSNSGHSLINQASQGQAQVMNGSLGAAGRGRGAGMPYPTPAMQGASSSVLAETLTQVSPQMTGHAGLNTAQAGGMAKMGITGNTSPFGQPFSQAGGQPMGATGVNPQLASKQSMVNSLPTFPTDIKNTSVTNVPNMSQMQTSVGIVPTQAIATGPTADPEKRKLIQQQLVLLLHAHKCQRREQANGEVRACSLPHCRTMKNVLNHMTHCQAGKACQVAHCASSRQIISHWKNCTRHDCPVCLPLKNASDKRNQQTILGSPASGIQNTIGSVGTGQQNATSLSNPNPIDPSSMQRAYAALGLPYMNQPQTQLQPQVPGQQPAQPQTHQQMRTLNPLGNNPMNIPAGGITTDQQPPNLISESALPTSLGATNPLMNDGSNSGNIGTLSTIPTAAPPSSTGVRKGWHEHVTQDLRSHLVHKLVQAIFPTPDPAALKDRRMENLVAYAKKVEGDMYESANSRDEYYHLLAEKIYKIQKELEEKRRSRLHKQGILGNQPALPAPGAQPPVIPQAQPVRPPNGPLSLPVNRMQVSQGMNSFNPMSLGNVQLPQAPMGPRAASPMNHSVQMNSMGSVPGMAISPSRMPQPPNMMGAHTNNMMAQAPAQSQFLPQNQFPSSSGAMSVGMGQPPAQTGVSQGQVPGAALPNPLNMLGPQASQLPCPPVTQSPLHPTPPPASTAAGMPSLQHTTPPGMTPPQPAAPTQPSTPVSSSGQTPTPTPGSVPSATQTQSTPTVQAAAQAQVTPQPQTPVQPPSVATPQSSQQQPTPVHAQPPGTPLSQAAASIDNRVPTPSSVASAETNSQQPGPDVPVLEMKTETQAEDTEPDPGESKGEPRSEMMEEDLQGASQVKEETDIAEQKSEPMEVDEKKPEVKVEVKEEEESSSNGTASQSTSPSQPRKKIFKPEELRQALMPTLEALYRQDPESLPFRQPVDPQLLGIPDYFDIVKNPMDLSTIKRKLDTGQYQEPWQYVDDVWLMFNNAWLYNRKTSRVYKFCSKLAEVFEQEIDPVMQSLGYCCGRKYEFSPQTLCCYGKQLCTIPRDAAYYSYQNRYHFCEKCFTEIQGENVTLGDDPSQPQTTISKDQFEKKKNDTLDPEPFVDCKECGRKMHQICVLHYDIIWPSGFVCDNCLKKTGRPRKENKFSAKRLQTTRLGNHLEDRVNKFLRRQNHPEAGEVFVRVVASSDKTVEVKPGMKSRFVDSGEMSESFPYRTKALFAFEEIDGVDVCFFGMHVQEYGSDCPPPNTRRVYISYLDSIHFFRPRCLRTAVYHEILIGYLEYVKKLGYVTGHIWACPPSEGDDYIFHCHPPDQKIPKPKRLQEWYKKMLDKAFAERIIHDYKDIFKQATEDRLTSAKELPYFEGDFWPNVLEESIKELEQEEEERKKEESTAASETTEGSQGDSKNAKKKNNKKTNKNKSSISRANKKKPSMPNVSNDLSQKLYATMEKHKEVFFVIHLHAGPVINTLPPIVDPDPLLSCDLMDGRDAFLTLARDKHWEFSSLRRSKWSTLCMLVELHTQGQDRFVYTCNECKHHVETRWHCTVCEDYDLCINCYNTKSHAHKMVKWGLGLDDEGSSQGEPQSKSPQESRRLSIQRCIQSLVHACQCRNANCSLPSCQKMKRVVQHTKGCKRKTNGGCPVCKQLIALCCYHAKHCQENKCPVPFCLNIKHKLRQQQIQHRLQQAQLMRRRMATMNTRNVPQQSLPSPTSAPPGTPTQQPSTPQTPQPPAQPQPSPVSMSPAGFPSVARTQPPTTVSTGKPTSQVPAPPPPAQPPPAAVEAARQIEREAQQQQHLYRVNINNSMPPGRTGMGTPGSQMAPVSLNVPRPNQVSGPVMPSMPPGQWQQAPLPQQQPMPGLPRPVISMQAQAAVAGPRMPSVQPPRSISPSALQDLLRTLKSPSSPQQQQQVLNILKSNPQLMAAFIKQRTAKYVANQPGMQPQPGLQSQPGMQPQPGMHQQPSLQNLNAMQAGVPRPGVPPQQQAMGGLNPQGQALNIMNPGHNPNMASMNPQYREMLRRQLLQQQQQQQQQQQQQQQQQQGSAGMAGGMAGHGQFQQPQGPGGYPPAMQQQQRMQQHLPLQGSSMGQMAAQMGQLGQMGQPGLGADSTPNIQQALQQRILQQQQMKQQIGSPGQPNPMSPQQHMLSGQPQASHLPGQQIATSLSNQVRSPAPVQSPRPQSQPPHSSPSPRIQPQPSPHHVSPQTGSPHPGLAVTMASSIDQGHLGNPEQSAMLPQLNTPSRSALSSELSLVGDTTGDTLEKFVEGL
UniProt A9QM74: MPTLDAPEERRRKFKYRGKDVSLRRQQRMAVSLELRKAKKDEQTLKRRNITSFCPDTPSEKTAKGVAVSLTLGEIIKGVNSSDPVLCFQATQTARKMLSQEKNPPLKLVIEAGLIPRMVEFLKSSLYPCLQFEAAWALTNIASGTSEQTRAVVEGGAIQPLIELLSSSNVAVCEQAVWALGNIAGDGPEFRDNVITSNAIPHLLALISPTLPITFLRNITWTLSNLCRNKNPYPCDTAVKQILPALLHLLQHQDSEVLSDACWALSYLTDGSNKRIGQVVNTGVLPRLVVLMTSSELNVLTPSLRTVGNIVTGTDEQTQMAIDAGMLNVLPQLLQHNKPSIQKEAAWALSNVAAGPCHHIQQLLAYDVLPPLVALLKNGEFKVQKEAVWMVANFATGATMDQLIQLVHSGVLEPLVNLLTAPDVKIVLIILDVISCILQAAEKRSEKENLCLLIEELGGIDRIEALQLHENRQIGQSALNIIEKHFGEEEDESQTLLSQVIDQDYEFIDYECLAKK
UniProt Q92973: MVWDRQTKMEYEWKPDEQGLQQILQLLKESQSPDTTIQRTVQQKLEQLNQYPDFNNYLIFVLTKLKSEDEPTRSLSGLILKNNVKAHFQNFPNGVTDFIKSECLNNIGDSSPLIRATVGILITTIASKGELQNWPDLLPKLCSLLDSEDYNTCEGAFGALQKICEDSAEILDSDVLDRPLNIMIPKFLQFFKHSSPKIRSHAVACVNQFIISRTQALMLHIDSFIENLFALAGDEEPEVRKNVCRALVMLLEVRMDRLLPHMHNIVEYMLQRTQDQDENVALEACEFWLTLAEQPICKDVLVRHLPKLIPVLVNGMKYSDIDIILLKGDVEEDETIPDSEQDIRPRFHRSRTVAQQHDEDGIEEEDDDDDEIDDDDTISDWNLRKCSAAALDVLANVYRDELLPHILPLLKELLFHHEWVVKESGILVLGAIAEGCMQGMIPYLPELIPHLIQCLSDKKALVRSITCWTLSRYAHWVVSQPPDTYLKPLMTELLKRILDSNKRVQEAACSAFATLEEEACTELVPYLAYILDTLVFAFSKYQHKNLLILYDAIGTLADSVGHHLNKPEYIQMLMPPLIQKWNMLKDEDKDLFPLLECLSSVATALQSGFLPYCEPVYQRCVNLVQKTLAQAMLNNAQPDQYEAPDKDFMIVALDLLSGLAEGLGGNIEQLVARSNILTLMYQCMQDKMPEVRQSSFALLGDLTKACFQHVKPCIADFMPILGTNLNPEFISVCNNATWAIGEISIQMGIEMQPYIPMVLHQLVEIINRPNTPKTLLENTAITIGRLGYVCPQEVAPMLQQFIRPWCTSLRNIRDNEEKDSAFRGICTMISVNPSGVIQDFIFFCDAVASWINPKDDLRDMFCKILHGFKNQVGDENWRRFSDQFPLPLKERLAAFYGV

The target in test [2] is T2, SIRT2^1–356 (truncated SIRT2 lacking the unstructured C-terminal end), C-terminal GFP (UniProt Q8IXJ6).
T2 sequence: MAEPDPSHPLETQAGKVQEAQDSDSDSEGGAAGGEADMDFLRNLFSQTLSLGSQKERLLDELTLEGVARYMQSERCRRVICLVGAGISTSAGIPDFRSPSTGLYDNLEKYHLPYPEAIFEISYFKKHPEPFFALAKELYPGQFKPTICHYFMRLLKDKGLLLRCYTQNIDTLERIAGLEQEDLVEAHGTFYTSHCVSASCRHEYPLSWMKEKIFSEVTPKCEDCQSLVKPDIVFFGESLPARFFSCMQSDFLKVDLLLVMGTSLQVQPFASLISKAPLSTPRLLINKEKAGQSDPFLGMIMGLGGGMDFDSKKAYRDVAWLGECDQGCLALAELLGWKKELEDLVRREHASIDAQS
The description is as above.

Test [3] deals with T3, SIRT2^1–356 tagged at its N-terminus with mCherry (UniProt Q8IXJ6).
T3 sequence: T2 sequence
The experiment in a line: co-IP; HeLa cells transfected with mCherry-tagged SIRT2, RIPA lysate, RFP-Trap agarose beads, Western blot (Fig. S2B).

For test [4], the target named is T4, SIRT2 with an N-terminal mCherry tag (UniProt Q8IXJ6).
T4 sequence: T1 sequence
The test is described as above.

Test [5] has as its target T1, SIRT2 (isoform 1) tagged at its C-terminus with GFP. As to the kind of experiment: co-IP; immunoprecipitation from HEK293T cells, Western blot (Fig. S2A).

Results are given in words; binding and its absence hold for the method and conditions named. In cells and extracts the contact can be indirect. Some results given as binding are weak or reduced against the parent protein; the word gives no strength. Tags and fused reporters may be left off the sequences shown.

With “CREB-binding protein (CBP) (from UniProt Q92793 1-2442)”, the binding result in test [1] and in test [2] was “binds” each time.

For the substance KPNA7 (from UniProt A9QM74 1-516), the binding entry in test [1] is listed as “no binding”.

Take “Transportin 1 (TNPO1) (from UniProt Q92973 1-898)”: the binding result in test [1], in test [2], in test [3], in test [4] and in test [5] was “binds” throughout.

The values are drawn from publication PMC7010746.
